Assay results reported in the supplement of paper PMC12632987.
In all, about 4,500 sequences were measured (“median log2 fold change of GCK-ALFA target abundance (FLAG IP / Myc IP barcode read proportion)”: median about 0.078, lowest 2% from about -0.6 on). This is one part of the list.

B1: GBRAP_160_4403 (protein)
chain: SEEYEKLAKEVEELIAETKELIEGETPEQRKVIIRVMVGDILLAAEENPAVTDEQEEEIAALLDASLAAILAAVDKGLEAVKAALDALLAELKALIEKYK
B2: GBRAP_11_2677 (protein)
chain: KKEELKKIAELARKLAEAIEKLLKEGVDNEELRKEIEKLLEELEKLAKKHADKGIQTLVEIAKELWKEAKENPEKAEEYLKLLLAAVRVLAANVEEEIDE
B3: GBRAP_160_4758 (protein)
chain: KEELKKLKEEVKEIFEEYLEMLKEVPASEAPTVVRGAMGEVIMEVMSSEAASEELEEKIGEIADEAEAEAAANADAPVEYHIAILEEAKEKVLKLIEEEI
B4: GBRAP_14_3877 (protein)
chain: MEEIEEAIEEAREELKEFFESLDPEKAERAKEAVDEIFEEMLEEIKKTGKYREALEKARERLLAELEEILADAPAEERAAALAEVAVTLAELEEEIDELL
B5: GBRAP_184_5054 (protein)
chain: KIFEREIEAENKEELEKKLEELEEEVKNHKGDLIVTVKIPKFTKEMIELIMKRAKEILEKGYAKRITIGLDGDMSEEVVDLALELADKAGVNVVIALDEE
B6: GBRAP_39_5685 (protein)
chain: EEEEEDENVVSYLEGLAAARLYETGKSLEELFEEAKKILKALAKEEPELKELIEELIELAEKKGDEAKLALIGIAVLVEEGTPLEEIKENIEKVINYFKK
B7: GBRAP_78_6698 (protein)
chain: ELEEIIEEAIKLVGEAARLTKALPADARNELLDLLVDAASDLLEAEENGGDLEELKEALKHLKEALALADALNDPRAEPLRELLEKAIKLVEEAIKLVEK
B8: GBRAP_160_4846 (protein)
chain: SEKLKKVKEELEEAREFVLSLVDEVSVEDVAKFARAELGSTALYLYEKGYINEEALDAILEEADELEEELLANKDASKEEIKAIIKEKVERAIKKVEKLL
B9: GBRAP_11_2827 (protein)
chain: EKEKLKRLAEKAREIAKELEKLIKSGNPTEEELEELLKKAEELLKETKEYGTPAQVKLAEILLEEIKEAIANPEKQKEYLEQALAFARVLEGQYLLEADE
B10: GBRAP_39_5647 (protein)
chain: DEEEENELLFSYFEALAMKYQIEKGISTEELIKEGLELLEKLKKEYPEIKELLDELIKLAKEGDEETKLAAVGIALLKEEGESVEKLKEHIEKFIKYVKS
B11: GBRAP_160_4008 (protein)
chain: SPETEALKEEIRELIEELIEDMKGLSPEERITLARGMMGDILQLAFDSPVVSDETEDEIAEIGDEFLAELEANADAPLEVWVELAEDFEERIFELLDKSE
B12: GBRAP_137_3620 (protein)
chain: KTVRITFYEEDGTLIAEITADTSVDREKLLALVEEVAEKHGVQLVVAESEPDEPLELYLVGEPEKVIAAVKDLIERLKEELGVEVVLESDGAEAAVEAVK
B13: GBRAP_39_5712 (protein)
chain: DKEEELELLASYGEALFDRYAYENGISEEEAIKEGLEFMRELAERNPEHREEILALLEEAEKLGEEAKRYVAAAAALIRDGMSLEEAIEVLKYKLEQLKK
B14: GBRAP_52_6161 (protein)
chain: MKEKAEEYANKVIEAVKAGKEEELEKLLKEIAETLSEEEIELMLDIIAEKVPELTPEEAERVVEAAIRLEDLGIEAGKDEELLSYKLARVAAAAYARLQA
B15: GBRAP_122_2941 (protein)
chain: SELRAEIEALIDGIVAALAAGDEEELDALAERLVKLFGKVSPEEARAAVERLLARLAGDPEARERALRALLKAFYKLEPQNAAQEAAADVVAEEFDKLSE
B16: GBRAP_160_4111 (protein)
chain: NEELKKFAEENAEDLKETIEIIEDLSNEEAGVLALVTIGEALIDASEYDEKFEELEKLAEELEKKIRETAEKDPENLKEVSLEALKELREAFEKKAKELK
B17: GBRAP_11_2710 (protein)
chain: RKETLKELAERAEELAREIERLIKEGPTKEEIKRLLERVRELLEEARKAGLPQSVLDLLEIAAESLEKAIEDPENVEQYLREALAALRVLAGQLLLLAEE
B18: GBRAP_52_6031 (protein)
chain: SRERMRALARELIDLVLAGRDDEARALAEELVATLSEEELRLLGEELARLTREAAPEDLDAYMRAAEIVADALEAAGYDEVLADDLLARVAAAAVENLAR
B19: GBRAP_95_7058 (protein)
chain: DEDVEIAEALFDTAVDLAEAGFDEQAAKAVAALADQILELGGNKVDAKVDPETALKLARIAAATLDPERARAVTDLLGAAVGDPETAARLRAILAAAEAA
B20: GBRAP_52_6169 (protein)
chain: SAAEAARLADEILAAVRAGDEERVAALLERIAATLSDEEIAATLAAIAERVPSLSPEDQERVVEVALRLEDVAEAAGHDPEVLDYEVARVAAAAYAALQA
B21: GBRAP_128_3163 (protein)
chain: SMEEVKKETEKLMEEFINSSLEEAKKIAEEIFEKFKEVNDEEREVMTEVVLKNLPKLSVEKLDILADVFRERRPELDEYGQELVNEIIVEALNVAEEKEE
B22: GBRAP_11_2746 (protein)
chain: MKEKLKEIEKLAEKLAETLQKLIEKGVDDKELLEEAEKLLKELEELVKKYGDESLKKLAKIAKEDFEKAKKDPANALLYLKNALAAARVLAGQVKLEIEE
B23: GBRAP_128_3185 (protein)
chain: SVEEVREETRRAAEEIKNSDKEEARKIARELFERLLGLSLEEAEAAVEVLEEMLPEFSEEKLEIIAEVAREVRPKADPEKARLIAGLEVEALNRIEELEE
B24: GBRAP_52_6316 (protein)
chain: MREEAERLAEELVELVKEGKREEARKLAKEIAENKSLEFLELLAEVLAERILEADEETADALLEAAEILAEALIEAGHDEAVASDFLAAAARAAYERELR
B25: GBRAP_160_4087 (protein)
chain: SAEAKALIARVREIFDEAIEMMEDVSREEAVAIALVALGEVALEIEEAEFLSEEDKEKLLALVDEGEERIRAAADASVEEIIALLREFEERIVAAIEEAA
B26: GBRAP_160_4100 (protein)
chain: SEKTEKLIKEIEELAKEAKEMIEGESIEQRATIVRGFGGEVIMLLMSSGEVSDETVDFADEVFDEVVDTILANPDLTLEEIKELIDEAVEKVKKKIKEDA
B27: GBRAP_95_7033 (protein)
chain: EDDKLALESAIEVAVAAAELGDDDAAARALREALELLKKAGKVELDEELLKEAIDVIERVGVKKLPREDVLELLELLLEAAETEEVKELAEKAIERVKKR
B28: GBRAP_160_4337 (protein)
chain: SENTEKLIKFIKEEFEETLELIEGLSFEERKVLIEGTFGVILMELSEDESISDETEDKIDEIFDETLATLDANPDLSLEEIKELILETKEKIIKIIKESD
B29: GBRAP_52_6129 (protein)
chain: MEEEARRLVEELLELVRAGREEEARELARRIVEEKDDEFLKLVADELARRAKEASPEEQELIERAAEILAEEIREAGRDEVLADYVESRIAAALYEAEQA

What follows are binders tested against GABARAP, O95166 (assay: median log2 fold change of GCK-ALFA target abundance (FLAG IP / Myc IP barcode read proportion) (log2 ratio); each designed protein is fused to an ALFA-tag nanobody in HEK293 cells to bring the named protein to FLAG-tagged glucokinase (GCK); Myc marks an untargeted standard; higher = target protein stabilised (more abundant)). Settings: target protein: 3xFLAG-MCP-GCK-ALFA reporter; HEK293 landing pad (RPLP).
GABARAP, O95166, sequence (O95166 whole entry, the tested form may be a part): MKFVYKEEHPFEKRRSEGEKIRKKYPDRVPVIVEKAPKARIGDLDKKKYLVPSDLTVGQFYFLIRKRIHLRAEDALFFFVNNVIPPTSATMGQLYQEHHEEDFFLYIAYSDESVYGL
How it was run: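 The readout is target abundance, the per-binder median log2 ratio of FLAG to Myc barcode read proportions. It came from HEK293 landing-pad cells carrying a recombined ALFA-nanobody-fused binder library, induced with 2 μg mL^−1 doxycycline and transfected with a plasmid for a FLAG-tagged target and a Myc-tagged standard. After 48 h, lysates were immunoprecipitated with anti-FLAG and anti-Myc, and circular RNA barcodes were reverse transcribed, amplified and sequenced. Each barcode needed a proportion of at least 10^−7 in both replicates and each binder at least 3 barcodes per replicate, a pseudocount of 10^−6 was added, and the replicates were pooled.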

| Binder | median log2 fold change |
| --- | --- |
| B1 | -0.455 |
| B2 | 0.211 |
| B3 | -0.0284 |
| B4 | 0.0558 |
| B5 | 0.179 |
| B6 | -0.604 |
| B7 | -0.0276 |
| B8 | 0.306 |
| B9 | 0.0418 |
| B10 | 0.266 |
| B11 | -0.065 |
| B12 | -0.0746 |
| B13 | 0.014 |
| B14 | 0.0239 |
| B15 | 0.269 |
| B16 | -0.204 |
| B17 | -0.051 |
| B18 | -0.202 |
| B19 | -0.412 |
| B20 | -0.236 |
| B21 | 0.0674 |
| B22 | 0.229 |
| B23 | 0.318 |
| B24 | 0.0705 |
| B25 | 0.0122 |
| B26 | -0.177 |
| B27 | 0.148 |
| B28 | -0.0423 |
| B29 | 0.192 |
